According to paper PMC6919601, “Identification of Plasmodium dipeptidyl aminopeptidase allosteric inhibitors by high throughput screening” (PLoS ONE, 2019):
Hit rate of the full screen: of about 110,000 compounds, about 230 (0.21%) showed an effect of 50% or more. The list shows a part of the results.

molecular target: DPAP1 (Plasmodium falciparum, UniProt Q8IIJ9); experiment: primary screen, percent inhibition; read by cleavage of a fluorogenic dipeptide substrate; higher = more effect of the substance; set-up: species or system P. falciparum D10 trophozoite lysates; single well
Sequence (Q8IIJ9 whole entry, looked up): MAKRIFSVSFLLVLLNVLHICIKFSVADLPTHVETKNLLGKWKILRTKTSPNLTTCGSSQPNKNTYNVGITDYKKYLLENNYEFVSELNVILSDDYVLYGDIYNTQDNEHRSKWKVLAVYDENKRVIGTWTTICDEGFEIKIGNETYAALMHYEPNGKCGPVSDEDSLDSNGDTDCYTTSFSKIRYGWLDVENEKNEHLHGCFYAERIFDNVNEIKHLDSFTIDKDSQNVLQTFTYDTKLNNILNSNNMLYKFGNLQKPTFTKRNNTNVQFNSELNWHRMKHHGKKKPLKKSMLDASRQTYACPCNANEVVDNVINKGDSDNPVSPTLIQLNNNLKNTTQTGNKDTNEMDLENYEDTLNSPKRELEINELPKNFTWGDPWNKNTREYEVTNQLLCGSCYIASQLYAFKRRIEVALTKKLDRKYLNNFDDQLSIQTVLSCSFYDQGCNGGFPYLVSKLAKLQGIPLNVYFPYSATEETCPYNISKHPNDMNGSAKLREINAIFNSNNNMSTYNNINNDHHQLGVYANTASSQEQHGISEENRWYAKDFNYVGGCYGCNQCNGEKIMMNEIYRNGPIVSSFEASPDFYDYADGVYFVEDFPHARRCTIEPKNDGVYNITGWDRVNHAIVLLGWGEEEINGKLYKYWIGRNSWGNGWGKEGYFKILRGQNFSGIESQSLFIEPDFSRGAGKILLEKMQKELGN
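Further: 30 min substrate incubation versus DMSO and 10 µM JCP410 controls.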

Row | Structure (SMILES) | % Inhibition @ 10 uM [%]
1 | COc1cccc(-c2nn(C)c3sc(C(=O)N4CCC(N5CCCCC5)CC4)cc23)c1 | -0.499
2 | Cc1ccc2c(c1)-c1c(cnn1CC(=O)NCCCN1CCCC1=O)CO2 | -6.42
3 | COCCn1cc(C(=O)N2CCCCCC2)c2c3ccccc3n(C)c2c1=O | -7.85
4 | COc1ccc(-c2noc(NCc3cccc(Cl)c3)n2)cc1OC | 12
5 | CC(=O)NC1=NN(C(C)=O)C(c2ccc(N(C)C)cc2)S1 (centres unmarked) | 1.63
6 | Cc1[nH]c2ccccc2c1CCNC(=S)NCCc1ccccc1 | 4.41
7 | O=C(NCCNC(=O)c1nc(-c2ccc(F)cc2)no1)c1ccc(Br)o1 | -5.17
8 | C=C(C)CN(CC)Cc1coc2ccc(C)cc2c1=O | -1.64
9 | O=S(=O)(c1ccc(-c2ccc(O)nn2)o1)N1CCN(C(c2ccccc2)c2ccccc2)CC1 | -2.74
10 | CCOC(=O)c1c(NC(=O)CC(NC(=O)c2ccccc2)c2ccccc2)sc2c1CCCC2 (centres unmarked) | -4.7
11 | COC(F)(C(=O)Nc1ccccc1C(C)C)C(F)(F)F (centres unmarked) | -3.68
12 | CC(=O)N1CCN(c2ccc(NCc3ccc(Br)cc3)cc2)CC1 | 11.6
13 | O=C(OCc1ccccn1)c1cccc(COc2ccccc2Cl)c1 | -3.13
14 | CCc1nc(C)cn1S(=O)(=O)c1ccc(Br)c(OC)c1 | 3.91
15 | O=C(N/C(=C\C=C/c1ccccc1)C(=O)N1CCCCC1)c1ccc(Br)o1 | 1.13
16 | CC(C)NC(C)C(=O)c1ccc2c(c1)CCCC2 (centres unmarked) | -2
17 | Cc1cc(-c2ccc(S(=O)(=O)NC3CCCCCC3)cc2)on1 | -3.1
18 | COCCNC(=O)C1CCCN(c2nn3cc(-c4ccc(F)cc4)nc3s2)C1 (centres unmarked) | 4.43
19 | CC1=NN2C(=N)/C(=C\c3cccn3-c3ccc4ccccc4c3)C(=O)N=C2S1 | -3.35
20 | CC(=O)c1cc2c(=O)n3c(nc2nc1O)CCC3 | 2.23
21 | C=Cc1ccc(Cn2c(C(=O)O)c(CNCCc3ccccc3Cl)c3ccc(C)cc32)cc1 | -0.177
22 | COCCNC(=O)CN1C(=O)CSc2ncccc21 | 1.03

Row | Structure (SMILES) | % Inhibition @ 10 uM [%]
23 | CCOC(=O)N1CCN(c2c(NCCOC)c(=O)c2=O)CC1 | -8.92
24 | CCOc1ccc(-n2cc(-c3ccccc3)c3c(N4CC(C)OC(C)C4)ncnc32)cc1 (centres unmarked) | 10.9
25 | COc1ccc(Nc2ccccc2C(=O)O)cc1 | 5.01
26 | N#CCNC(=O)C(CC(Cl)Cl)NC(=O)OCc1ccccc1 (centres unmarked) | -0.207
27 | CC1=C(C(=O)Nc2cccc(F)c2)C(c2ccc(Cl)c(Cl)c2)NC(S)=N1 (centres unmarked) | 5.16
28 | CCN(CCO)c1ncnc2onc(-c3ccc(F)cc3)c12 | -0.887
29 | CC1CCCN(C(=O)CN(C)S(=O)(=O)c2cccc3nsnc23)C1 (centres unmarked) | 3.43
30 | CCOC(=O)c1c(S(=O)(=O)N2CCN(C(c3ccccc3)c3ccccc3)CC2)c(C)n(C)c1C | 5.41
31 | Cc1cc(-c2noc(CCc3ccccc3)n2)c2ccccc2n1 | -4.04
32 | O=C(NC1(C(F)(F)F)C(=O)Nc2c1c(=O)[nH]c(=O)n2-c1ccccc1)c1ccc(Cl)cc1Cl (centres unmarked) | -5.23
33 | CC(C)OCC(O)CSCc1ccc(Cl)cc1 (centres unmarked) | 4.84
34 | CCN(CC)C(=O)CN(Cc1ccccc1)S(C)(=O)=O | -4.91
35 | O=C(Nc1ccccc1C#Cc1ccccc1)c1ccco1 | -4.75
36 | O=C1S/C(=C\c2ccc(N3CCOCC3)o2)C(=O)N1Cc1ccc(F)cc1 | 6.58
37 | CCOP(=O)(OCC)C(Nc1ccccc1)c1ccccc1 (centres unmarked) | 5.77
38 | CC(CCc1ccccc1)NC(=O)c1ccncc1 (centres unmarked) | 3.21
39 | COC(=O)C1=CN(Cc2ccccc2)C=C(C(=O)OC)C1c1ccc2c(c1)OCO2 | -1.1
40 | CCOc1ccc(C(=O)Nc2cc(C)ccc2C)cc1 | -9.68
41 | COc1ccc(Cl)cc1N(CC(=O)NC(C)(C)C)S(C)(=O)=O | 3.66
42 | CC1(C)CC2c3cccc(C(=O)O)c3C(=O)N2c2c1ccc1ccccc21 (centres unmarked) | -8.36
43 | CN(Cc1ccccc1)c1nnc(NC(=O)NC2CCCC2)s1 | 0.623
44 | CCOC(=O)CNc1ccc(Cl)cc1C | -1.22

Row | Structure (SMILES) | % Inhibition @ 10 uM [%]
45 | Cc1ccc(C2CC(=O)NC(SCC(=O)Nc3ccc(Cl)c(Cl)c3)=C2C#N)cc1 (centres unmarked) | -2.16
46 | CCOC(=O)Nc1cccnc1Sc1ccc(Cl)cc1 | 1.01
47 | COc1ccc(NC(=O)c2ccccc2F)cc1Cl | -2.18
48 | CCc1nnc(NC(=O)c2cc3c(Cl)nc4ccccc4c3s2)s1 | -3.99
49 | COc1ccccc1-c1nn2c(-c3ccccc3)nnc2s1 | -5.38
50 | O=C(Nc1cccnc1Cl)c1cc(-c2ccccc2O)on1 | -10
51 | COc1ccccc1CN1CCN(Cc2ccc(OC)c(OC)c2)CC1 | -0.622
52 | COc1ccc(Br)cc1C1CC(=O)Nc2c1c(=O)nc(SCc1ccccc1)n2C (centres unmarked) | 27.5
53 | O=S(=O)(NCC1CCN(S(=O)(=O)c2ccc(Cl)cc2)CC1)c1ccc(Cl)cc1 | 3.67
54 | COc1cccc(NC(=O)CCCC(=O)O)c1 | -4.35
55 | O=C(CCN1C(=O)C2C3C=CC(C3)C2C1=O)NCCc1ccccc1Cl (centres unmarked) | 3.61
56 | CCn1nc(C)c2c(C(F)(F)C(F)(F)F)cc(=O)n(CC(=O)N3CCCCC3)c21 | 9.97
57 | FC(F)(F)c1ccccc1CN1CCc2c([nH]c3ccccc23)C1 | 7.59
58 | COc1ccccc1C1(O)CC2CCC(C1)N2c1nccc(C)n1 (centres unmarked) | -6.81
59 | O=C(O)CS(=O)(=O)CC(=O)O | 1.32
60 | N#CC1=C(SCC(=O)Nc2ccc(Br)cc2)NC(=O)CC1c1ccc(F)cc1 (centres unmarked) | 3.46
61 | CC1CCN(C(=O)C2c3ccccc3Oc3ccccc32)CC1 | 4.49
62 | Cc1ccc(Cl)cc1N1CCN(C(=O)C2CCN(S(C)(=O)=O)CC2)CC1 | -2.6
63 | Cc1nn(C(=O)CCC(=O)NCCC(C)C)c2ccccc12 | 0.596
64 | O=C(Nc1cccnc1)c1ccc(Oc2ccccc2)cc1 | -5.54
65 | Cn1c2ccccc2c2cnn(CC(=O)NC3CCN(Cc4ccccc4)CC3)c(=O)c21 | 4.53
